Experimental data from PubChem BioAssay AID1346428 (National Center for Advancing Translational Sciences (NCATS), 2018).
Screen size: about 48,000 compounds; about 1,200 (2.5%) were called active. Not shown: some 2% with an inconclusive outcome.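 The calls were made as follows: active = activation of at least 60% and not above a set upper limit (about 1 call in 100 departs from these limits); inconclusive = activation of 40% to 60%, or above that upper limit; inactive = activation under 40%.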 This is one part of the list.

Each molecule was assayed against Probable G-protein coupled receptor 32 (Homo sapiens) (UniProt O75388) (assay: qHTS for Agonists of Human Resolvin D1 Receptor DRV1). Conditions: CHO-K1 GPR32 beta-arrestin PathHunter luminescence, 90 min; at 76.9 µM; stronger effect = higher value; zero percent set by DMSO-only wells.
Procedure, shortened: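 Agonism was scored as beta-arrestin recruitment to ProLink-fused GPR32 in stably transfected CHO-K1 cells, giving a chemiluminescent beta-Gal signal; compounds were incubated 90 min at 37 °C.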
Also: 0% is about no effect.

Sequence of UniProt O75388 (O75388 whole entry, looked up, the tested form may be a part): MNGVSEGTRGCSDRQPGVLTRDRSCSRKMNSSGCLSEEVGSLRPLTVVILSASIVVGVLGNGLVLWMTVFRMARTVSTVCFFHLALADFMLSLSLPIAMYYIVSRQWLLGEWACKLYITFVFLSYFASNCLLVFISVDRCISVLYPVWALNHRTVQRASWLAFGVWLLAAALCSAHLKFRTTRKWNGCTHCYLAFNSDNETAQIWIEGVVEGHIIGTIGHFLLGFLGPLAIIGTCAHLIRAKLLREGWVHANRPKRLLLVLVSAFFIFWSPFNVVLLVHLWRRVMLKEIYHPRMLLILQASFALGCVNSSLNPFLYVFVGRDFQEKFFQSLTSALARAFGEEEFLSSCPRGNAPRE

activation, inactive:
CCC(C)NC(=O)CSc1nnc(-c2ccc(C)cc2)c(-c2ccc(C)cc2)n1 (stereo unspecified) -29%
COCCCNC(=O)c1sc2nc(C)c(C(=O)Nc3ccc(C)cc3C)c(-c3ccc(Br)cc3)c2c1N -1.4%
COc1ccc(-c2noc(CN(C(=O)Cc3ccc(C)cc3)C(C)C)n2)cc1 26.9%
CCCN(CCC)C(=O)C1CCCN(c2ncnc3onc(-c4ccc(F)cc4)c23)C1 (stereo unspecified) -3.51%
Cc1ccc(CSCCC(=O)N2CCN(c3cc(C)ccc3C)CC2)cc1 -16.1%
COc1cccc(CNC(=O)C2CCN(C(=O)c3sccc3-n3cccc3)CC2)c1 -15%
O=C(NCCCO)C(=O)Nc1c2c(nn1-c1ccccc1)CSC2 -17.1%
CCCN(CCC)C(=O)c1cn(CC)c2ccc(S(=O)(=O)N3CCCCC3)cc2c1=O -8.13%
CCC(CC)C(=O)NCc1nc2cccnc2n1Cc1ccc(F)cc1 -9.22%
Cc1cn2c(=O)cc(COC(=O)c3ccccc3F)nc2s1 4.98%
Cc1ccc(CNS(=O)(=O)c2cc3c(cc2C)N(C)CCO3)cc1 -19.7%
CCc1ccc(NC(=O)CSc2nc3c(sc4ccccc43)c(=O)n2CCN(CC)CC)cc1 33.8%
Nc1nc2c(cnn2CCc2ccccc2)c2nc(-c3ccco3)nn12 -1.57%
O=C(CN1C(=O)C2(SCC(=O)N2c2ccccc2)c2ccccc21)NCCc1ccccc1 (stereo unspecified) -5.7%
Cc1ccc(C(=O)Nc2ccccc2C(=O)OCc2cc(=O)n3nc(C4CC4)sc3n2)cc1 -3.37%
COc1cc(C)ccc1OCCSc1nc2ccc(NC(=O)c3cccs3)cc2s1 -1.73%
COc1cccc(C(=O)Nc2nc3nc(-c4ccccc4)cc(=O)n3[nH]2)c1 25.3%
O=C(Cn1c(=O)nc(-c2ccccc2)c2ccccc21)NCCc1ccccc1 -13.2%
CCOC(=O)c1c(-c2ccc(C)cc2)csc1NC(=O)c1cc(=O)c2cc(C)ccc2o1 -14.6%
O=C1c2oc3ccccc3c(=O)c2C(c2cccc(O)c2)N1c1nncs1 (stereo unspecified) -17.7%
COc1cccc(CNC(=O)C2=C(C)C(=O)OC23CCN(C(C)=O)CC3)c1OC -6.14%
COc1ccc(-c2oc3ncn4nc(COc5cccc(C)c5C)nc4c3c2-c2ccc(OC)cc2)cc1 -8.73%
COc1cc(Nc2nc(SCc3ccc(Cl)cc3)nc3ccccc23)cc(OC)c1 -22.9%
CC(=O)c1ccc(NC(=O)CN2C(=O)CN(C)C(=O)c3ccccc32)cc1 1.63%
CN(C)c1cccc(C(=O)N2CCC(c3c[nH]c4ccccc34)(c3c[nH]c4ccccc34)CC2)c1 4.24%
Cc1cccc(CNC(=O)c2ccc(N3Cc4ccccc4Oc4ncccc43)s2)c1 -13.1%
CCC(C(=O)NCc1cc(OC)ccc1OC)n1nc(C)c2sc3ccccc3c2c1=O (stereo unspecified) 5.09%
COc1cc(C(=O)Nc2ccc(NC(=O)c3ccc(C(C)(C)C)cc3)cc2)cc(OC)c1OC 8.41%
O=C(COCc1cc(-c2cccs2)on1)N1CCN(c2ccccc2)CC1 -21.1%
CC(C)c1ccc(N2C(=O)CSC23C(=O)N(Cc2cccc(F)c2)c2ccccc23)cc1 (stereo unspecified) -15.6%
COc1ccccc1C(=O)Nc1ccc2nc(SCCOc3ccccc3C)sc2c1 -7.61%
Fc1ccc(NCc2nnc3n2CCCCC3)cc1Cl -8.37%
COc1ccc(OC)c(CNC(=O)C2CCCN(c3ncnc4onc(-c5ccc(F)cc5)c34)C2)c1 (stereo unspecified) 3.09%
Cc1ccc(/C=C(\C#N)c2nc(-c3ccc(-c4ccccc4)cc3)cs2)cc1 1.81%
CCOC(=O)c1cccc(NC(=O)CCS(=O)(=O)c2ccc3c(c2)CC(=O)N3C)c1 -8.22%
Cc1ccc(S(=O)(=O)C2(C(=O)Nc3ccc(Cl)c(C(F)(F)F)c3)CC2)cc1 7.48%
CCOc1ccccc1CNC(=O)CCc1c(C)nn(-c2ccc(N3CCCC3)nn2)c1C -5.69%
COc1ccc(OC)c(C(=O)CC2(O)C(=O)N(Cc3ccccc3C)c3ccccc32)c1 (stereo unspecified) -21.5%
Cc1ccc(-n2c(=O)c3cccnc3n2CC(=O)Nc2cc(C)cc(C)c2)cc1 1.83%
COc1ccccc1CNC(=O)Cn1c(=O)nc(-c2ccccc2F)c2cc(Cl)ccc21 -0.255%
CC(C)c1ccc(NC(=O)Cn2c(=O)n(CC3CCC(C(=O)NCCc4ccccc4)CC3)c(=O)c3ccccc32)cc1 (stereo unspecified) 13.4%
